Binding data for four substances are collected here from article PMC10470785.

The chains behind the UniProt entries cited, without tags or fusion partners.
UniProt P62820: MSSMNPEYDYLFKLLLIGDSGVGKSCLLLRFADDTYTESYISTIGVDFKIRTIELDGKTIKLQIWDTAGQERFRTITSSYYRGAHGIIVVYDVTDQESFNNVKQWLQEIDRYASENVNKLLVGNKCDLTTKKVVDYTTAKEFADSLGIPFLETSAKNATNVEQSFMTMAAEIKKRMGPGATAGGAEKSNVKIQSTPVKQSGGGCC
UniProt Q15286: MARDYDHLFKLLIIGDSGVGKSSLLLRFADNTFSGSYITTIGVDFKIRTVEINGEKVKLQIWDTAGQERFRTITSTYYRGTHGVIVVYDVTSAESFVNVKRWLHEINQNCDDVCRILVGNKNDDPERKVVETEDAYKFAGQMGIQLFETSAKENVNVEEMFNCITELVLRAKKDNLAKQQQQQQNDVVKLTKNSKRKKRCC
UniProt Q9NRW1: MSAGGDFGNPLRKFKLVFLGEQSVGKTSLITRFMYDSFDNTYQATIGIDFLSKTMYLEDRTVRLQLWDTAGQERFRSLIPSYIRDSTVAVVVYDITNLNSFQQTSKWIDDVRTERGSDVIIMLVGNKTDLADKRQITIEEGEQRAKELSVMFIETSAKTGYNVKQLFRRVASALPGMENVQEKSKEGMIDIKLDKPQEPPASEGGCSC
UniProt A0A0H3MBY4: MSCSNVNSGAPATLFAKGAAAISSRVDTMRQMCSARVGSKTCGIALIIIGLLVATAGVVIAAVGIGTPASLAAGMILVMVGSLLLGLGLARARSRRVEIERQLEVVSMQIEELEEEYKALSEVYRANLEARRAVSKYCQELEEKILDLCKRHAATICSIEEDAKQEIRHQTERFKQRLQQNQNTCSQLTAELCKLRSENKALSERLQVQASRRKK
UniProt P20339: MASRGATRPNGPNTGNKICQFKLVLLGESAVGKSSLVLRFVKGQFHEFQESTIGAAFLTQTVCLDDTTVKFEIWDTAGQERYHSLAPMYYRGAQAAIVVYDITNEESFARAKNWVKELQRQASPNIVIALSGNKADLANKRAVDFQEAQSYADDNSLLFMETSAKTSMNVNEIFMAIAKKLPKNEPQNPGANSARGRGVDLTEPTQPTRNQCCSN

Results are given in words; binding and its absence hold for the method and conditions named. Binding seen in cells or lysates may run through a third protein. Some results given as binding are weak or reduced against the parent protein; the word gives no strength.

Test [1] concerns the target EGFP-Rab1A (human) (UniProt P62820). The test is described as follows: co-IP; lysates of infected HeLa cells expressing EGFP-Rab proteins; EGFP-Rab precipitated with GFP-Trap_MA beads (anti-GFP), washed with TBS/EDTA buffer; western blot for CpoS(L2)-FLAG. Background: A western blot detects proteins with antibodies after separation by electrophoresis.
The target in test [2] is EGFP-Rab35 (human) (UniProt Q15286). The description is as above.
The target in test [3] is EGFP-Rab6B (human) (UniProt Q9NRW1). Described as above.
For test [4], the target named is CpoS(L2)-FLAG (C. trachomatis serovar L2). The test is described as follows: co-IP; HeLa cells infected with strains expressing CpoS-FLAG (ortholog or variant) and transfected with EGFP-Rab plasmids; CpoS-FLAG precipitated from lysates at 26 hpi with ANTI-FLAG M2 magnetic beads; western blot.

Regarding “CpoS(L2)-FLAG (from UniProt A0A0H3MBY4 1-215)”, the binding entry in test [1], in test [2] and in test [3] was “binds” each time.
As to EGFP-Rab1A (from UniProt P62820 1-205), in test [4], the binding entry is “binds”.
Regarding EGFP-Rab5A (from UniProt P20339 1-215), in test [4], the binding result is listed as “no binding”.
Still for that read-out and setting: the result for EGFP-Rab35 (from UniProt Q15286 1-201) reads “binds”.
